System: human myeloma cell line MM.1S
Assay: SILAC acetylated-lysine peptide profiling, HDAC inhibitor vs DMSO (light/heavy ratio)
Assay type: cell-based
Source text: An embodiment of the invention comprises utilizing the SILAC method in order to quantitate changes in protein expression between two or more populations of cells. The SILAC method is a technique based on mass spectrometry that detects differences in protein abundance among samples using non-radioactive isotopic labeling. The SILAC method is known in the art, and described in detail in Ong et al., “Stable Isotope Labeling by Amino Acids in Cell Culture, SILAC, as a Simple and Accurate Approach to Expression Proteomics”, Molecular & Cellular Proteomics, vol. 1, pp. 376-386 (2002), which is incorporated herein by reference in its entirety.
Briefly, the SILAC method involves growing two populations of cells in cell culture. The first population of cells is grown in growth media containing normal amino acids (“normal media”). The second population of cells is grown in media lacking a standard essential amino acid (such as lysine), but is then supplemented with a non-radioactive, isotopically labeled form of that essential amino acid (such as lysine labeled with ^13C atoms, rather than normal ^12C atoms), which is called “heavy media”. When the two populations of cells are each growing in the medium, they incorporate the amino acids into all of their proteins. The growth of cells maintained in the heavy media is no different from that in normal media. All peptides containing the heavy amino acids are heavier than their normal counterparts. The cells from each of the two populations of cells are lysed. The lysates from each of the two cell populations are then combined. The combined cell lysates are then analyzed by mass spectrometry. Pairs of chemically identical peptides of different stable isotope composition can be differentiated in a mass spectrometer due to their difference in mass. The ratio of peak intensities in the mass spectrum for such peptide pairs reflects the abundance ratio for the two proteins.
This example describes SILAC studies that were performed to compare the effects of three different HDAC inhibitors (Compound A, Compound B, and tubastatin A) to a control on a human multiple myeloma cell line. The HDAC inhibitors were also compared amongst themselves to determine differences in their effects.
A human myeloma cell line MM.1S was grown using either ^12C (light) or ^13C (heavy) lysine containing culture medium. The “heavy” cells were treated with DMSO as the control, and the “light” cells were treated with a single HDAC inhibitor at 37° C. for 6 hours. The heavy and light cells were lysed, and the lysates were mixed in 1:1 ratio and digested with the protease trypsin. The acetylated lysine containing peptides (due to the action of the HDAC inhibitor) in the digested peptide pool were captured by a non-specific anti-acetylated lysine antibody cocktail (the antibodies identify both light and heavy acetylated peptides), and subjected to mass spectrometry analysis in order to identify thousands of individual peptides.
Thousands of peptides were identified in pairs (^12C and ^13C) due to their known mass differences. The amino acid sequence and quantitative ratio (Light/Heavy) of a given peptide in two differentially treated cell lysates were then determined and annotated with their possible protein (gene) sources.
As stated above, three HDAC inhibitors (Compound A, Compound B, and Tubastatin A) were used. Thus, the SILAC method was performed three times, with a different HDAC inhibitor compared to a control each time. Accordingly, there are three pairs of quantitative data in the table below, i.e., Compound A:DMSO, Compound B:DMSO, and Tubastatin A:DMSO. A cut-off of 1.30 fold of change (increase or decrease) was then used to determine “changed” or “+” in the table, and any peptides with a fold of change less than 1.3 fold were determined to be “unchanged” or “0” in the table. Those peptides that were not identified were marked as “NA” in the table. […]

`CN1CCc2c(c3ccccc3n2Cc2ccc(C(=O)NO)cc2)C1` [Tub A] was tested, and the “light to heavy ratio (L/H ratio) of acetylated peptide VLVGK(ac)NFEDVAFDEK (SEQ ID NO: 303)” value (Protein disulfide-isomerase [375], P4HB, drug:DMSO) was −0.41 log 2, the “light to heavy ratio (L/H ratio) of acetylated peptide NFEDVAFDEK(ac)K (SEQ ID NO: 286)” value (Protein disulfide-isomerase [385], P4HB, drug:DMSO) was −0.41 log 2 and the “light to heavy ratio (L/H ratio) of acetylated peptide SEVDMLK(ac)IR (SEQ ID NO: 295)” value (Putative annexin A2-like protein [302], ANXA2P2, drug:DMSO) was 0.41 log 2. For the same compound, the “light to heavy ratio (L/H ratio) of acetylated peptide RMELK(ac)ADQLYK (SEQ ID NO: 275)” value (Pyruvate dehydrogenase E1 component subunit alpha testis-specific form mitochondrial [75], PDHA2, drug:DMSO) was 0.53 log 2, the “light to heavy ratio (L/H ratio) of acetylated peptide, log 2 scale” value (“light to heavy ratio (L/H ratio) … log 2 scale” for short) (QGFNVVVESGAGEASK(ac)FSDDHYR (SEQ ID NO: 190), NAD(P) transhydrogenase mitochondrial [100], NNT) was 0.48 and the “L/H ratio of acetylated peptide EIDSVK(ac)[…] (SEQ ID NO: 73)” value (RAC2 [153], log 2 scale, drug vs DMSO) was −0.48. For the same compound, the “L/H ratio of acetylated peptide (ac)ADK(ac)EAAFDDAVEER (SEQ ID NO: 74)” value (RBBP4 [4], log 2 scale, drug vs DMSO) was 0.71, the “L/H ratio of acetylated peptide ACFYNLDK(ac)FR (SEQ ID NO: 75)” value (RBM17 [391], log 2 scale, drug vs DMSO) was −0.42 and the “L/H ratio of acetylated peptide LGLGEGAEEK(ac)SIPTLISR (SEQ ID NO: 76)” value (RCC1 [366], log 2 scale, drug vs DMSO) was −0.45. The “light to heavy ratio (L/H ratio) … log 2 scale” value (RPAVK(ac)QFHDSK (SEQ ID NO: 203), 60S ribosomal protein L18a [143], RPL18A) was −0.54, the “L/H ratio of acetylated peptide FIDTTSK(ac)FGHGR (SEQ ID NO: 83)” value (RPL3L [373], log 2 scale, drug vs DMSO) was −0.45 and the “L/H ratio of acetylated peptide LNILK(ac)LAPGGHVGR (SEQ ID NO: 85)” value (RPL4 [239], log 2 scale, drug vs DMSO) was −0.48. For the same compound, the “L/H ratio of acetylated peptide AASLK(ac)SNYNLPMHK (SEQ ID NO: 84)” value (RPL4 [274], log 2 scale, drug vs DMSO) was −0.57, the “L/H ratio of acetylated peptide NFLGEK(ac)YIR (SEQ ID NO: 86)” value (RPL9 [121], log 2 scale, drug vs DMSO) was −0.44 and the “L/H ratio of acetylated peptide TGCIGAK(ac)HR (SEQ ID NO: 77)” value (RPL11 [154], log 2 scale, drug vs DMSO) was −0.47. For the same compound, the “L/H ratio of acetylated peptide WFQQK(ac)YDGIILPGK (SEQ ID NO: 78)” value (RPL11 [169], log 2 scale, drug vs DMSO) was −0.64, the “L/H ratio of acetylated peptide IFAPNHVVAK(ac)SR (SEQ ID NO: 79)” value (RPL18A [41], log 2 scale, drug vs DMSO) was −0.51 and the “L/H ratio of acetylated peptide IEHIK(ac)HSK (SEQ ID NO: 80)” value (RPL21, SNORD102, SNORA27, RPL21P19 [97], log 2 scale, drug vs DMSO) was −0.44. The “L/H ratio of acetylated peptide YLK(ac)YLTK (SEQ ID NO: 81)” value (RPL22 [84], log 2 scale, drug vs DMSO) was −0.38, the “L/H ratio of acetylated peptide INFDK(ac)YHPGYFGK (SEQ ID NO: 82)” value (RPL27A [47], log 2 scale, drug vs DMSO) was −0.52 and the “L/H ratio of acetylated peptide LK(ac)YALTGDEVKK (SEQ ID NO: 89)” value (RPS4X [53], log 2 scale, drug vs DMSO) was −0.38. The “L/H ratio of acetylated peptide SFQK(ac)IQVR (SEQ ID NO: 90)” value (RPS7 [74], log 2 scale, drug vs DMSO) was −0.51, the “L/H ratio of acetylated peptide ELLTLDEK(ac)DPR (SEQ ID NO: 91)” value (RPS9 [66], log 2 scale, drug vs DMSO) was −0.52 and the “L/H ratio of acetylated peptide LQTQVFK(ac)LGLAK (SEQ ID NO: 92)” value (RPS9 [116], log 2 scale, drug vs DMSO) was −0.51. For the same compound, the “L/H ratio of acetylated peptide VANVSLLALYK(ac)GK (SEQ ID NO: 87)” value (RPS23 [135], log 2 scale, drug vs DMSO) was −0.46, the “L/H ratio of acetylated peptide LAVLK(ac)YYK (SEQ ID NO: 88)” value (RPS27A [104], log 2 scale, drug vs DMSO) was −0.52 and the “L/H ratio of acetylated peptide (ac)SIMSYNGGAIMAMK(ac)GK (SEQ ID NO: 124)” value (RcPSMB3 (Fragment) [15], log 2 scale, drug vs DMSO) was 1.00. The “L/H ratio of acetylated peptide LAELK(ac)QECLAR (SEQ ID NO: 94)” value (SARNP 17], log 2 scale, drug vs DMSO) was −0.73, the “L/H ratio of acetylated peptide (ac)ATETVELHK(ac)LK (SEQ ID NO: 93)” value (SARNP [10], log 2 scale, drug vs DMSO) was −0.85 and the “light to heavy ratio (L/H ratio) … log 2 scale” value (SCAEWVSLSK(ac)AR (SEQ ID NO: 135), Isoform 1 of ATP synthase subunit d mitochondrial [109], ATP5H) was 0.75. For the same compound, the “L/H ratio of acetylated peptide ANLVFK(ac)EIEK (SEQ ID NO: 95)” value (SCP2 [438], log 2 scale, drug vs DMSO) was −0.49 and the “L/H ratio of acetylated peptide EGQNWLEK(ac)K (SEQ ID NO: 96)” value (SEC11C [147], log 2 scale, drug vs DMSO) was 0.48.
